The densities may have been worked out from excess volumes.
Test: xn = mol fraction of the nth substance listed
Conditions: 101 kPa

CCCC[n+]1ccn(C)c1.F[B-](F)(F)F + CCCCCC[n+]1ccn(C)c1.F[B-](F)(F)F
x1 = 1
Conditions	mass density [kg/m3]
298.15 K	1201.7
299.15 K	1200.8
302.15 K	1198.7
303.15 K	1198
304.15 K	1197.3
305.15 K	1196.6
307.15 K	1195.2
308.15 K	1194.5

CC[n+]1ccn(C)c1.F[B-](F)(F)F + CCCCCC[n+]1ccn(C)c1.F[B-](F)(F)F
x1 = 1
Conditions	mass density [kg/m3]
299.15 K	1278.8
302.15 K	1276.5
304.15 K	1274.9
305.15 K	1274.2
307.15 K	1272.7

CCCC[n+]1ccn(C)c1.F[B-](F)(F)F + CCCC[n+]1ccn(C)c1.COS(=O)(=O)[O-]
x1 = 1
Conditions	mass density [kg/m3]
298.15 K	1201.4
299.15 K	1200.7
302.15 K	1198.6
303.15 K	1197.9
304.15 K	1197.2
305.15 K	1196.6
307.15 K	1195.2
308.15 K	1194.5

CCCC[n+]1ccn(C)c1.COS(=O)(=O)[O-] + CCCC[n+]1ccn(C)c1.F[B-](F)(F)F
mass density [kg/m3]
Conditions	298.15 K	299.15 K	301.15 K	302.15 K	303.15 K	304.15 K	305.15 K	307.15 K	308.15 K
x2 = 0	1207.9	1207.3	1206	1205.3	–	1204	1203.3	1202	1201.4
x2 = 0.1209	1207.4	1206.7	–	1204.7	1204	–	1202.7	–	1200.6
x2 = 0.2166	1206.9	1206.3	–	–	1203.6	1202.9	1202.2	1200.8	1200.1
x2 = 0.3057	1206.4	–	1204.3	1203.7	1203	1202.3	1201.6	1200.3	1199.6
x2 = 0.406	1205.8	1205.1	1203.8	1203.1	1202.4	1201.7	1201	1199.7	1199
x2 = 0.4358	1205.6	1205	1203.6	1202.9	1202.2	1201.5	1200.9	1199.5	1198.8
x2 = 0.5118	1205.2	1204.5	1203.1	1202.4	1201.7	1201.1	1200.4	1199	–
x2 = 0.5412	1205	1204.3	1202.9	1202.2	1201.5	1200.9	–	1198.8	1198.1
x2 = 0.6026	1204.5	–	1202.5	1201.8	1201.1	1200.4	1199.7	1198.3	1197.6
x2 = 0.648	1204.4	1203.6	1202.2	–	–	1200.1	–	1198.1	1197.3
x2 = 0.6934	–	1203.1	1201.7	1201.1	–	1199.7	–	1197.6	1196.9
x2 = 0.7813	1203.2	1202.5	1201.1	1200.4	–	1199.1	1198.4	1197	1196.3
x2 = 0.9005	1202.2	–	–	1199.5	1198.8	1198.1	1197.4	1196	1195.3
x2 = 0.9363	1202	–	1199.8	–	1198.4	1197.7	–	1195.7	–
x2 = 0.9683	–	1201.1	1199.7	–	1198.3	1197.6	1196.9	1195.7	1194.8

CCCC[n+]1ccn(C)c1.F[P-](F)(F)(F)(F)F + CCCC[n+]1ccn(C)c1.F[B-](F)(F)F
mass density [kg/m3]
Conditions	298.15 K	299.15 K	301.15 K	302.15 K	303.15 K	304.15 K	305.15 K	307.15 K	308.15 K
x1 = 0.0568	–	–	1209.5	1208.9	–	–	1206.8	1205.3	1204.6
x1 = 0.1034	1220.2	1219.5	–	1217.4	1216.7	1215.9	1215.2	1213.8	1213.1
x1 = 0.2095	1239.1	1238.3	1236.9	1236.2	1235.5	–	1234	1232.6	1231.8
x1 = 0.3012	1254.8	1254	1252.6	1251.9	1251.2	1250.4	–	–	1247.5
x1 = 0.3825	1268.7	1267.9	1266.5	–	1265	1264.2	1263.5	1262	1261.2
x1 = 0.4647	1282.6	–	1280.3	1279.6	–	1278.1	1277.3	1275.8	–
x1 = 0.4999	1288.3	1287.5	1286.1	1285.3	1284.6	1283.8	–	1281.5	1280.7
x1 = 0.5974	1304.5	1303.5	1302.1	1301.4	1300.6	1299.8	1299	1297.5	1296.7
x1 = 0.6928	1319.8	1318.9	1317.4	1316.6	–	1315	1314.2	1312.6	–
x1 = 0.833	1342.3	1341.4	1339.9	1339.1	–	1337.5	1336.6	–	1334.2
x1 = 0.8877	1350.7	–	1348.2	1347.4	1346.6	–	–	1343.3	1342.5
x1 = 0.945	1359.4	1358.5	1357	1356.2	1355.4	1354.5	1353.7	–	–
x1 = 1	1367.9	1366.9	–	1364.7	1363.9	–	1362.2	1360.5	1359.7
